Measured values reported in paper PMC12136788.
The list shows a part of the results.

T1: UNK ZnF1-3 (human, UniProt Q9C0B0 31-174)
T1 sequence: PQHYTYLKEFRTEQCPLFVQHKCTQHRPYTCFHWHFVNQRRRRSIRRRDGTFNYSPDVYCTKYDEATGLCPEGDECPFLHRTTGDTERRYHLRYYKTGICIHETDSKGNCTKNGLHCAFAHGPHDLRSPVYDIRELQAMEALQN

B1: chr10:61005148:61005149:+_ENSG00000165443_ENST00000486074|hu_mus|FALSE|FALSE (ssRNA)
RNA: GGGAGUUCUACAGUCCGACGAUCGACAUCCUGGGCGUGGUGGUACACCAGCACCCCAUCUUCUUCUGUACAGGUCAAAAAAUUAUUAUCCUUGGAAUUUAGUUGAGGAAGGCGCUGCUUACAAAAUUCAUCUCCUGGUGAUCCCAACAGAGGAUUGAGCAUCA
B2: chr2:53077437:53077438:+_ENSMUSG00000026960_ENSMUST00000028336|mus_mus|FALSE|FALSE (ssRNA)
RNA: GGGAGUUCUACAGUCCGACGAUCACAUUUAAAGCUUAAUUAAUAACAACAAGAACCCUUGAUAUGACAAGUACAGUAUCUAUAAUAUAUUACAACAUACAUAUUACAGUUAAAUUAUAUGUACACAUACAGAGUAUCAAAAUACAACAGAGGAUUGAGCAUCA
B3: chrX:12171913:12171914:+_ENSMUSG00000031007_ENSMUST00000033313|perfect_dup|FALSE|FALSE (ssRNA)
RNA: GGGAGUUCUACAGUCCGACGAUCCCUGGUAUAGGCCAAUUUCCAUUUCGGAAAACAACAGACCCUGGCGAUCUUAAUAUGCUAAAUUCAUUCCCUAAAGCACCCGCCACCAGAAAGAACAGGAGAACGACCAGCACAGCCAUGCAACAGAGGAUUGAGCAUCA
B4: chr15:81680702:81680703:-_ENSMUSG00000048546_ENSMUST00000050467|mus_mus|FALSE|FALSE (ssRNA)
RNA: GGGAGUUCUACAGUCCGACGAUCGAGAGAGAGUUGAGGCUAGGGCCAGACUUAUUUGGGUGGCAGGCCCUGAGAAGACAGCUAGGUUGGGGGUUGUGGACACGGGGGUGGAGGGUGGGGGGGUGUCAGCCUCUCCCUGUUUCACAACAGAGGAUUGAGCAUCA
B5: chr1:63223577:63223578:+_ENSMUSG00000025967_ENSMUST00000129339|mus_hu|FALSE|FALSE (ssRNA)
RNA: GGGAGUUCUACAGUCCGACGAUCAAGGUCAAAGUACUUUUGCAUUCCCACUUCUCCACGUACGAAUUGGGGGCCCUGAAUUAAAUGGCCCACAAAUUGUCCAUGGACCUUUCGUUGCGUUUGGAAGUAAAUUAAUAAAAUAGGCAACAGAGGAUUGAGCAUCA
B6: chr1:145602572:145602573:-_ENSMUSG00000018199_ENSMUST00000159879|mus_mus|FALSE|FALSE (ssRNA)
RNA: GGGAGUUCUACAGUCCGACGAUCCUGUUCAAGGCCAGCCUGGUCUACACAGUGAGCUCUAGAAUAGCCAGGACUAUGUCUAUGGAGAGAGACCCUGUCACAAAACAAAACAAAACAAAACAAAAUAACCAUCACACACACAUCCAACAGAGGAUUGAGCAUCA
B7: 91956291_91961813_1463_CDS_ENSG00000187742_ENST00000375807|human|control|control (ssRNA)
RNA: GGGAGUUCUACAGUCCGACGAUCGACUGGCACUGCUCCAACUGAGACUACCACUGGUUUGGAGGACUGCUUUGCAUGCUGAGAGUGCUGCUUCUUCUCCAGGGCUGUCAGCAUGCCCCCCAAGUCCAACUGCACUGGAAGCUGCAACAGAGGAUUGAGCAUCA
B8: chr6:40197388:40197389:+_ENSMUSG00000057716_ENSMUST00000061740|mus_mus|mus_mus_mus_hu_False|28_108 (ssRNA)
RNA: GGGAGUUCUACAGUCCGACGAUCGAGUUGUCAGUUUGGAUUUAUUCCACCUCUGUUUGGGUGCUAGCCACUAAGACUGUUAUUUUGGGAUUCAUGGCCUUGAAUAUCAAGAGGAAAAGGAAGAGGAUGGAAAGAGUCAAGAGUCAACAGAGGAUUGAGCAUCA
B9: chr16:2814526:2814527:+_ENSG00000167978_ENST00000301740|hu_mus|FALSE|FALSE (ssRNA)
RNA: GGGAGUUCUACAGUCCGACGAUCAACCUCAGGAGAAAAGCCAGUAUUUACUUCUGAAACAGGGCCUGAGUUUUUAAACUCUAAAGAUGACUCAAAGCUAUUCUCCCUUGGGGGAGAAUGAGAUAGUUCUUUAUGCUCUGGAGACAACAGAGGAUUGAGCAUCA
B10: 98493395_98495435_728_CDS_ENSG00000196367_ENST00000355540|human|control|control (ssRNA)
RNA: GGGAGUUCUACAGUCCGACGAUCUAUCAUACCAACCAUUUCUGGGGGAGGCACUGUGUUCUCGGGGAUCACUUGAGGGUUCUCAAAGUAGCGGUUCACUACUUUUGGAAGCUCCUUGUAAAUCUGUUUCACAAAAUCCAGAAACAACAGAGGAUUGAGCAUCA
B11: chr11:4127340:4127341:+_ENSG00000167325_ENST00000300738|hu_mus|hu_hu_hu_mus_False|88_88 (ssRNA)
RNA: GGGAGUUCUACAGUCCGACGAUCGGCAUAGUCAGGGUGCUUCGUGGUCAAGGUUGCGGCUGUCUCAGCAGCCAGGGUGUCCAGUUCCACUGUGGUGACCCCACUAUAUAGGCCUUGGAUUACUUUCAUGGUGAUCUGAGCAGGCAACAGAGGAUUGAGCAUCA
B12: chr17:35253193:35253194:-_ENSMUSG00000024387_ENSMUST00000025246|mus_mus|motif|central (ssRNA)
RNA: GGGAGUUCUACAGUCCGACGAUCGGCCUUUUCUUCCUUUAUUUCAUAUUCCCACCACAGUAACAAUUCCUUUAAUUUAAACGGAAAACCAUAGACUUCCUGAAAGGGUGGCAGCAGAGGAAUGGUGGUGUCACAGACAGAGGGCAACAGAGGAUUGAGCAUCA
B13: chr2:217001844:217001845:+_ENSG00000079246_ENST00000392132|hu_hu|hu_hu_hu_mus_False|68_78 (ssRNA)
RNA: GGGAGUUCUACAGUCCGACGAUCACCAACUUGAGGAUUAGAUCUUUUGUCAUAAGCAUAUCGAACUAUGGCCACCAUGUUUAACUCAUCCAAAGCAUGAACGAGAGAGGAAAGGGCAACAGCUGCCGCCUCAUCAUCCUUUGCCAACAGAGGAUUGAGCAUCA
B14: chr19:53463844:53463845:-_ENSMUSG00000025024_ENSMUST00000025997|mus_mus|FALSE|FALSE (ssRNA)
RNA: GGGAGUUCUACAGUCCGACGAUCUCAUUUUCUCCAUUUCCAGAAAGGGCAGCUUCUACUUGCUGGAGUUGAGCUUUGUAGCUAGCCAACUGUUUUGCUAGAUCCUCUGACAUCUUGGGUGGGGCUGGGGUCGGGACGGCGGGCCAACAGAGGAUUGAGCAUCA
B15: chr17:21088332:21088333:+_ENSMUSG00000007564_ENSMUST00000007708|mus_mus|motif|central (ssRNA)
RNA: GGGAGUUCUACAGUCCGACGAUCCUCACUUCUGGUCCGUUCAACCCCAAGGGCCAAGGCAAUUGUGGAGAGCUUCUUGAUACGGUUGAGACGAAGCUGAACGUCCUCAUUGCGGAGUUCAUCUAUGAGCACCGCAAUAGGAUACAACAGAGGAUUGAGCAUCA
B16: 50987589_50987709_1136_3pUTR_ENSMUSG00000017144_ENSMUST00000017288|mouse|control|control (ssRNA)
RNA: GGGAGUUCUACAGUCCGACGAUCUUCGCUUCUCACCACUCGGUCUACAUGCCGAAACUAAGGACAGGAUUCCGAAAAGUGGGUAUCCUUUCAAGGGCCUCCUAAGCCUGUAUCUAUGUGACUUUGGCUGUGCACUUCAUUUGACAACAGAGGAUUGAGCAUCA
B17: chr1:100327937:100327938:+_ENSG00000162688_ENST00000361915|hu_mus|motif|central (ssRNA)
RNA: GGGAGUUCUACAGUCCGACGAUCCUCCUUUGCCACCCUUAGCCGGCUUUCCCACUCAUCGAAGGGUCCUAAGCACUUUGCGGAGAACGUCUGCAGAGUAACACAGUCCAAGGGUAACACGUGGUUAUCAACUCCAAUGCGUAACAACAGAGGAUUGAGCAUCA
B18: chr4:76721835:76721836:+_ENSG00000138768_ENST00000264904|hu_mus|hu_hu_hu_mus_True|48_78 (ssRNA)
RNA: GGGAGUUCUACAGUCCGACGAUCGUUUGGCUGGGGUUUCUGAGACGCUCUGGAAUAAACUCAUGUUUUGCUAAUAAAUCCUAGUUUUCUAUGAAAUUUCUCUUUGCCAAUCCUCUUCUCUAUUAGUUGCUUUAGUUUCUCUUUCAACAGAGGAUUGAGCAUCA
B19: chr11:62190249:62190250:-_ENSMUSG00000018501_ENSMUST00000155712|mus_hu|FALSE|FALSE (ssRNA)
RNA: GGGAGUUCUACAGUCCGACGAUCAGCAGAAACAGUGGAAGCGACACUUUCACAUUGAGACACAUCUCGCUCUUCACGAGGUUUUCGUGAAGUUUUCUGUUUAUGCUGCUGUAAGAGGUUGUCAAGAUUGUGUCGCCUUUUAUACAACAGAGGAUUGAGCAUCA
B20: chr20:36033742:36033743:+_ENSG00000197122_ENST00000358208|hu_mus|FALSE|FALSE (ssRNA)
RNA: GGGAGUUCUACAGUCCGACGAUCGUGUUUAAUCAGACAGUAUGCAAAAUAUGUACAACAAGUCUGGGUCCCCCUCCCCCAAGCCUGGGCAUGGAAUGUGGGAUCCCCAGGCCCUGCCCAGAGCUGGGGAGGGGUCCCCAAGGCCAACAGAGGAUUGAGCAUCA
B21: chr10:60895279:60895280:-_ENSMUSG00000020091_ENSMUST00000020288|mus_hu|motif|central (ssRNA)
RNA: GGGAGUUCUACAGUCCGACGAUCCACUGGAAGAUGUUUAAUUAAAAAGUUGCUGUUCAAAAUUGUACUGAAAACAUAUCGGAAAAUAGGUCUGUAGUCAUCUUAAAAAUAAAAGGUCACUUCUCAGAUAAGAGGAGUGACAGACAACAGAGGAUUGAGCAUCA
B22: chr3:53254358:53254359:-_ENSMUSG00000042997_ENSMUST00000130348|mus_mus|FALSE|FALSE (ssRNA)
RNA: GGGAGUUCUACAGUCCGACGAUCCAGAAGUCAAAAUCCCAGCACAGAGCAGGGAGGGGCUCAUGAAGCCUACCACGAACUAAGAAGCUACUGGAGGUAGCUGUGGGGGACCUUUCCUAAAAGGUGACCCUGCUUCGAGGAGUGCAACAGAGGAUUGAGCAUCA

target: T1, UNK ZnF1-3; assay: nsRBNS (natural sequence RNA bind-n-seq); RBNS binding buffer (assumed for nsRBNS): 25 mM Tris pH 7.5, 150 mM KCl, 3 mM MgCl2, 0.01% Triton X-100, 500 ug/ml BSA, 20 U/ml SUPERase-In, 4 C; UNK is unkempt and MSI1 is Musashi-1; names of the RNAs are library labels; protein concentration not given here; high values mean tight binding

Going from B1 to B2, the binding signal rises from 1.14 enrichment R to 1.17 enrichment R.

Compared with B3, B4 is lower in binding signal: 1.61 enrichment R for the first, 1.5 enrichment R for the second.

Going from B5 to B6, the binding signal rises from 1.31 enrichment R to 1.73 enrichment R.

Going from B7 to B8, the binding signal rises from 0.862 enrichment R to 1.56 enrichment R.

Going from B9 to B10, the binding signal falls from 1.17 enrichment R to 0.892 enrichment R.

Compared with B11, B12 is higher in binding signal: 0.985 enrichment R for the first, 1.98 enrichment R for the second.

Compared with B13, B14 is lower in binding signal: 1.89 enrichment R for the first, 0.867 enrichment R for the second.

First: B15
Second: B16
The binding signal of the first is lower: 0.624 enrichment R for the first, 0.834 enrichment R for the second.

Going from B17 to B18, the binding signal falls from 0.843 enrichment R to 0.567 enrichment R.

First: B19
Second: B20
The binding signal of the first is higher: 0.655 enrichment R for the first, 0.597 enrichment R for the second.

Compared with B21, B22 is lower in binding signal: 1.58 enrichment R for the first, 1.16 enrichment R for the second.
